Measured values as given in US20210403534A1 (R PHARM OVERSEAS, published 2021).
“And” between values parts separate entries of the source, which are not always exact repeats. Equal values may be shown once.

What was measured:
[1] = biological target: T1, IL-1β/IL-1F2, Human recombinant, E. coli-derived, Ala117-Ser269 (human, UniProt P01584 117-269); assay: cell-based or functional assay
[2] = biological target: T2, IL-1β IL-1F2, M. Rhesus recombinant, E. coli-derived, Ala117-Ser269 (M. Rhesus, UniProt P48090 117-269); assay: cell-based or functional assay
T2 sequence (looked up): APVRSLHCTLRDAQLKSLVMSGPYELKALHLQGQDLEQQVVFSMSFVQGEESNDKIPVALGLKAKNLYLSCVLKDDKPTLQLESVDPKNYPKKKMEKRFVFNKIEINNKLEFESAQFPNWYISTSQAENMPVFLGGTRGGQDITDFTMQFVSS

[3] = biological target: T3, IL-1β/IL-1F2, Mouse recombinant, E. coli-derived, Vla118-Ser269 (mouse, UniProt P10749 118-269); assay: cell-based or functional assay
T3 sequence (looked up): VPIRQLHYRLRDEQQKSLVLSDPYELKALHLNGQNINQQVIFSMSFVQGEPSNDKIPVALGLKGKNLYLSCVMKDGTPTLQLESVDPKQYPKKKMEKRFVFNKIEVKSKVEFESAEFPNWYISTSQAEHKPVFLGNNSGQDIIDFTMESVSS

[4] = biological target: T1, IL-1β/IL-1F2, Human recombinant, E. …; assay: SPR (Biacore T200), heterodimer captured by anti-human IgG on CM5 chip, IL-1β as analyte; steady-state analysis, 1:1 Langmuir model
Procedure: 3. Human IL-1β/IL-1F2 were used at the concentrations specified in Table 2 where concentration of 3.676 nM was run two time independently as an internal control for the instrument reproducibility;
As an alternative way for Kd calculation, Steady-State data analysis using 1:1 Langmuir binding model was used. According to this method, Kd is calculated from series of plots of steady-state analyte binding levels (Req) against concentration.

B1: IL1R-FcV-RAcP-FcII heterodimer (Fc fusion)
chain 1: DKCKEREEKIILVSSANEIDVRPCPLNPNEHKGTITWYKDDSKTPVSTEQASRIHQHKEKLWFVPAKVEDSGHYYCVVRNSSYCLRIKISAKFVENEPNLCYNAQAIFKQKLPVAGDGGLVCPYMEFFKNENNELPKLQWYKDCKPLLLDNIHFSGVKDRLIVMNVAEKHRGNYTCHASYTYLGKQYPITRVIEFITLEENKPTRPVIVSPANETMEVDLGSQIQLICNVTGQLSDIAYWKWNGSVIDEDDPVLGEDYYSVENPANKRRSTLITVLNISEIESRFYKHPFTCFAKNTHGIDAAYIQLIYPVTNGSGGG[human IgG1 Fc with Y349C T366S L368A F405K Y407V (EU numbers) not shown]
chain 2: SERCDDWGLDTMRQIQVFEDEPARIKCPLFEHFLKFNYSTAHSAGLTLIWYWTRQDRDLEEPINFRLPENRISKEKDVLWFRPTLLNDTGNYTCMLRNTTYCSKVAFPLEVVQKDSCFNSPMKLPVHKLYIEYGIQRITCPNVDGYFPSSVKPTITWYMGCYKIQNFNNVIPEGMNLSFLIALISNNGNYTCVVTYPENGRTFHLTRTLTVKVVGSPKNAVPPVIHSPNDHVVYEKEPGEELLIPCTVYFSFLMDSRNEVWWTIDGKKPDDITIDVTINESISHSRTEDETRTQILSIKKVTSEDLKRSYVCHARSAKGEVAKAAKVKQKVPAPRYTVGSGGGDKTHTCPPCPAPELLGGPSVFLFPPKPKDTLMISRTPEVTCVVVDVSHEDPEVKFNWYVDGVEVHNAKTKPREEQYNSTYRVVSVLTVLHQDWLNGKEYKCKVSNKALPAPIEKTISKAKGQPREPQVYTLPPCRDELTKNQVSLWCLVKGFYPSDIAVEWESNGQPENNYKTTPPVLDSDGSFFLYSALTVDKSRWQQGNVFSCSVMHEALHNHYTQKSLSLSPG
notes: also called hIL1-R1-hIgG1-Fc polypeptide / hIL-1RAcP-hIgG1-Fc polypeptide heterodimeric protein assembly; hIL1-R1-hIgG1-Fc-II/IL-1RAcP-hIgG1-Fc-V
[1]
  IC50 of IL-1β/IL-1F2-induced IL-6 secretion, MEFs: 0.19 ng/ml and 0.95 pM
  IC50 of IL-1β/IL-1F2-induced IL-6 secretion, MRC5 cells: 0.22 ng/ml and 1.1 pM
[2]
  IC50 of IL-1β/IL-1F2-induced IL-6 secretion, MRC5 cells: 0.38 ng/ml and 1.9 pM
[3]
  IC50 of IL-1β/IL-1F2-induced IL-6 secretion, MEFs: > 210 ng/ml and > 1050 pM
[4]
  Kd: 9.63 pM
